Measurements from patent publication US20260193307A1 (ASKGENE PHARMA, published 2026).
Blank lines part the entries; values can stand above or below the binder they belong to.

Target: IL-2 (UniProt P60568)
Assay: ForteBio (BLI), purified scFv-Fc to IL-2
Chain of IL-2 (P60568 21-153 limits assumed): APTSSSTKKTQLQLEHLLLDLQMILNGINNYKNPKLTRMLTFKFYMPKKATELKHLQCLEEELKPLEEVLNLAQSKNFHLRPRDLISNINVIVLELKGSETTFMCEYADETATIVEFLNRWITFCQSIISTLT

Kd: < 1 pM
Response: 0.3
B1: K3-30F7 scFv-Fc (JR8.144.1) (Fc fusion)
scFv: [about 100 residues not listed]PWTFGQGTKVEIKAGGGGSGGGGSGGGGSQVQLVESGGGVVQPGRSLRLSCAASGFTFSTYGMHWVRQAPGKGLEWVAVISHEGNNKYYADSVKGRFTISRDNSKNTLYLQMNSLRAEDTAVYYCARDWFYGRARFDPWGQGTLVTVSS
notes: Purified scFv-Fc homodimer; also called JR8.144.1 K3-30F7; not shown: Human Fc domain of the scFv-Fc homodimer and its linker to the scFv

Kd: < 1 pM
Response: 3.9
B2: K3-30F6 scFv-Fc (JR8.156.4) (Fc fusion)
chain: [about 100 residues not listed]AGGGGSGGGGSGGGGSEVQLLESGGGLVQPGGSLRLSCAASGFTFSDYAMSWVRQAPGKGLELVSVISSGGGATYYADSVKGRFTISRDNSKNTLYLQMNSLRAEDTAVYYCARGPRTYDVWGQGTLVTVSS
notes: Purified scFv-Fc homodimer; also called JR8.156.4 K3-30F6; not shown: Fc fragment (human Fc domain)

Kd: < 1 pM
Response: 0.6
B3: K1-69G3 scFv-Fc (JR8.156.5) (Fc fusion)
chain: [about 100 residues not listed]PITFGQGTKVEIKAGGGGSGGGGSGGGGSQVQLVQSGAEVKKPGSSVKVSCKASGGTFSSYGIHWVRQAPGQGLEWMGGIIPSFGITNYAQKFQGRVTITADESTSTAYMELSSLRSEDTAVYYCARYPYSFDHWGQGTLVTVSS
notes: Purified scFv-Fc homodimer; also called JR8.156.5 K1-69G3; not shown: Fc fragment (human Fc domain)
